According to publication PMC4336329 (PLoS ONE, 2015):
About 2,200 (0.71%) of roughly 310,000 compounds showed an effect of 50% or more. Effects have a minus sign here. The list shows a part of the results.

The molecules below were run against human ether-à-go-go-related gene (hERG) potassium channel (human, UniProt Q12809) (assay: primary screen, population patch clamp on CHO cells stably expressing hERG).
Chain of human ether-à-go-go-related gene (hERG) potassium channel (Q12809 whole entry, looked up): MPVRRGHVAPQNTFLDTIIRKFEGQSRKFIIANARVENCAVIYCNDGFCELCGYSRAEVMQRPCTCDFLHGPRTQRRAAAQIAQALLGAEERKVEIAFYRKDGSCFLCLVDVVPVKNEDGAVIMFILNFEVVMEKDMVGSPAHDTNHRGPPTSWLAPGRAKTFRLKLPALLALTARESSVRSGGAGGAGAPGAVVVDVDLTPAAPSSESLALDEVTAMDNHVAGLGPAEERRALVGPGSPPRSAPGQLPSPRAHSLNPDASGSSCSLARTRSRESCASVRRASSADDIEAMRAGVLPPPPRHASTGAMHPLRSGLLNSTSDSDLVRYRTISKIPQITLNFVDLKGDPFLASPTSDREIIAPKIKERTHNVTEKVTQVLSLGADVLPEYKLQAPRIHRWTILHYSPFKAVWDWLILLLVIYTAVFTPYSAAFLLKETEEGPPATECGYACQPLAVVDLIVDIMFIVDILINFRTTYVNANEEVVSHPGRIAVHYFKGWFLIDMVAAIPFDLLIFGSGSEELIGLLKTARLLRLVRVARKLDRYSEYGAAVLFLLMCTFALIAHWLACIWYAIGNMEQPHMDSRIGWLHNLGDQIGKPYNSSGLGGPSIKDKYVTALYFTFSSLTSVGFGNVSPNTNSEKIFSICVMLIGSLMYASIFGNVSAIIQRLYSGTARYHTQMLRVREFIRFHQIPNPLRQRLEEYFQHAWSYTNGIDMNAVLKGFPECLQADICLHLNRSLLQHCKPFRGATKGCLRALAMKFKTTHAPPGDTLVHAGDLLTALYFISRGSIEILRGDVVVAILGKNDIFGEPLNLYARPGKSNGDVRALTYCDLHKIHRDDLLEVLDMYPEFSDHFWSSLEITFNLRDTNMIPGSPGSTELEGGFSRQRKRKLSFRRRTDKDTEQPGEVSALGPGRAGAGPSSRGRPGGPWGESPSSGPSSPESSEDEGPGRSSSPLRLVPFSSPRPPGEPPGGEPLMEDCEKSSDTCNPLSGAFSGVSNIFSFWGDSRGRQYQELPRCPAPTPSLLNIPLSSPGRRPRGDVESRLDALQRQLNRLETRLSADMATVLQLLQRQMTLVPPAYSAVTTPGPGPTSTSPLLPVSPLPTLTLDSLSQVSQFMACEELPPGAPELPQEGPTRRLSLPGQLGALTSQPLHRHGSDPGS

SMILES	hERG current change (%, negative = inhibition) at 1uM [%]
Nc1ccccc1/C=N\N=C/c1ccccc1N	6.7
CCNc1ccc(C(=O)Nc2ccc3nc(C)sc3c2)cc1[N+](=O)[O-]	8.82
CCOc1ccccc1CN1CCNC(=O)C1CC(=O)NC1CCCCC1 (stereo not drawn)	12.8
Cc1ccc(OCC(=O)NNC(=O)CSc2ncc(C#N)c(N)n2)cc1	6.73
COc1ccc(CCNC(=O)c2cc3c(=O)n4ccccc4nc3n(Cc3ccco3)c2=N)cc1OC	-74.3
O=C(NCC1CCCO1)C1CCN(S(=O)(=O)N2CCCC2)CC1 (stereo not drawn)	3.93
CN(C)c1ccc(C(=S)N2CCN(Cc3ccccc3)CC2)cc1	-7.94
Cn1c(O)c(/C=N/N2CCCCC2)c(=O)[nH]c1=O	9.92
CC1(C)CC(=O)C(N=Nc2cc3c(cc2[N+](=O)[O-])OCCO3)=C(O)C1	21
CC1=NN(C(=O)CCc2ccccc2O)C(O)(C(F)(F)F)C1 (stereo not drawn)	8.68
NCCCC[C@H]1CNC(=O)C(=O)N1CCC12CC3CC(CC(C3)C1)C2	7.13
Cc1ccc(SCC(=O)OCC(=O)NC2CCCCCCC2)cc1	18.5
O=C(NCCc1ccccc1)C1CCN(Cc2cccc3ccccc23)CC1	-1.42
Cc1ccc2nc(N3CCN(c4ccccc4F)CC3)c(C=O)c(=O)n2c1	-4.86
O=C(CN(C1CCCCC1)S(=O)(=O)c1ccc(Cl)cc1)NCCCO	-1.44
O=C(Nc1ccccc1F)Nc1ccc([N+](=O)[O-])cc1Cl	14.9
COc1ccc(NC(=O)CSCC(=O)N(C)Cc2c(F)cccc2Cl)cc1	4.83
COc1ccc2[nH]c(C(=O)Nc3ccccc3Cl)cc2c1	7.42
C=CCn1c(SCC(=O)Nc2ccc(-c3nc4ccc(C)cc4s3)cc2)nnc1-c1ccncc1	6.15
O=C(CN1C(=O)C2CC=CCC2C1=O)Nc1ccc(S(=O)(=O)NC2=NCCCCC2)cc1 (stereo not drawn)	6.35
COc1ccc(C2CC3(CC(C)(C)NC(SC)=N3)Oc3cc(O)cc(C)c32)cc1.I (stereo not drawn)	-28.7

SMILES	hERG current change (%, negative = inhibition) at 1uM [%]
CCCN(C(=O)Cc1coc2cc(C)c(C)cc12)c1c(N)n(Cc2ccccc2)c(=O)[nH]c1=O	-1.29
O=C(c1ccc2ncsc2c1)N1CCCC(C(F)(F)F)C1 (stereo not drawn)	21.9
CCn1nnc(NC(=S)NC(=O)c2ccc(-c3cccc(Cl)c3)o2)n1	12.2
CCOC(=O)C1CCN(C(=O)c2cc(S(=O)(=O)N3CCCCCC3)ccc2OC)CC1	-7.42
O=C1N/C(=C/c2cccn2-c2ccc(F)cc2)C(=O)N1Cc1ccccc1F	16.7
Cc1c(C(=O)NCCSCc2c(F)cccc2Cl)cnn1-c1ccc(Cl)cc1	-17.8
Cc1cccc(NC(=O)c2cc([N+](=O)[O-])ccc2N2CCN(C)CC2)c1	-41.2
CCCOc1ccc(/C=C/C(=O)OCC(=O)N(C)c2c(N)n(Cc3ccccc3)c(=O)[nH]c2=O)cc1OCC	17.8
COc1ccccc1OCC(=O)Nc1ccc(S(=O)(=O)Nc2nc(C)cc(C)n2)cc1	14
CN[C@H](C)[C@H](O)c1ccccc1	15.3
N#C/C(=C\c1ccccn1)c1nc2ccccc2s1	13.8
COc1ccc(CN2CCNC(=O)C2CC(=O)NCC2CCOCC2)c(F)c1 (stereo not drawn)	17.6
Cc1ccc(-n2nc3c(=O)n(CC(=O)NC(C)CCc4ccccc4)nc(C)c3c2C)cc1 (stereo not drawn)	0.24
COc1ccc(-n2nnc3c(=O)n(CC(=O)Nc4ccc5c(c4)OCCO5)cnc32)cc1OC	7.77
O=C1OC(CCl)CN1Cc1ccc([N+](=O)[O-])cc1 (stereo not drawn)	-3.19
COc1ccc(S(=O)(=O)N2CCC(C(=O)OCC(=O)c3ccccc3)CC2)cc1[N+](=O)[O-]	3.89
Cc1ccc(NC2=C([N+](=O)[O-])CS(=O)(=O)C2)cc1	1.77
O=C(NC(=S)Nc1ccc(S(=O)(=O)Nc2nccs2)cc1)c1ccc(F)cc1	18.6
CC(NC(=O)CNC(=O)C1O[C@@H]2OC(C)(C)O[C@@H]2[C@H]2OC(C)(C)O[C@@H]12)C(=O)O (stereo partly drawn)	20.5
COc1cccc(-c2nc(CS(=O)CC(=O)NCc3ccccc3Cl)c(C)o2)c1 (stereo not drawn)	3.14
Cc1cccc(C(=O)NC(Oc2ccccc2)C(Cl)(Cl)Cl)c1 (stereo not drawn)	17.5
